# Some of the results follow.
# What was measured:
# Assay in all cases: glycan array binding signal (z-score within array); higher = stronger binding
# Conditions in all cases: glycan notation: IUPAC condensed, linker removed
# Gal(b1-4)Glc = biological target: Gal(b1-4)Glc
# Procedure, shortened: (§1)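 Glycan array binding is given as a within-array Z-score, which can be read as non-binding when negative. The arrays, 3228 of them, came from the Consortium for Functional Glycomics database and were retained only where the protein sequence was available. Z-scores were averaged across arrays of the same protein sequence at different concentrations or buffers and across linkers.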
# Gal(b1-4)Glc6S = biological target: Gal(b1-4)Glc6S
# Procedure, shortened: as §1
# Gal(b1-4)GlcNAc = biological target: Gal(b1-4)GlcNAc
# Procedure, shortened: as §1
# [1] = biological target: Gal(b1-4)GlcNAc(a1-6)Gal(b1-4)GlcNAc
# Procedure, shortened: as §1
# Gal(b1-4)GlcNAc(b1-2)Man = biological target: Gal(b1-4)GlcNAc(b1-2)Man
# Procedure, shortened: as §1
# [2] = biological target: Gal(b1-4)GlcNAc(b1-2)Man(a1-3)Man(b1-4)GlcNAc(b1-4)GlcNAc
# Procedure, shortened: as §1
# [3] = biological target: Gal(b1-4)GlcNAc(b1-2)Man(a1-3)[Gal(b1-4)GlcNAc(b1-2)Man(a1-6)]Man(b1-4)GlcNAc(b1-4)GlcNAc
# Procedure, shortened: as §1
# [4] = biological target: Gal(b1-4)GlcNAc(b1-2)Man(a1-3)[Gal(b1-4)GlcNAc(b1-2)Man(a1-6)]Man(b1-4)GlcNAc(b1-4)[Fuc(a1-6)]GlcNAc
# Procedure, shortened: as §1
# [5] = biological target: Gal(b1-4)GlcNAc(b1-2)Man(a1-3)[Gal(b1-4)GlcNAc(b1-2)Man(a1-6)][Gal(b1-4)GlcNAc(b1-4)]Man(b1-4)GlcNAc(b1-4)[Fuc(a1-6)]GlcNAc
# Procedure, shortened: as §1
# [6] = biological target: Gal(b1-4)GlcNAc(b1-2)Man(a1-3)[Gal(b1-4)GlcNAc(b1-2)Man(a1-6)][GlcNAc(b1-4)]Man(b1-4)GlcNAc(b1-4)[Fuc(a1-6)]GlcNAc
# Procedure, shortened: as §1
# [7] = biological target: Gal(b1-4)GlcNAc(b1-2)Man(a1-3)[GlcNAc(b1-2)Man(a1-6)]Man(b1-4)GlcNAc(b1-4)GlcNAc
# Procedure, shortened: as §1
# [8] = biological target: Gal(b1-4)GlcNAc(b1-2)Man(a1-3)[GlcNAc(b1-4)][Gal(b1-4)GlcNAc(b1-2)Man(a1-6)]Man(b1-4)GlcNAc(b1-4)GlcNAc
# Procedure, shortened: as §1
# [9] = biological target: Gal(b1-4)GlcNAc(b1-2)Man(a1-3)[Man(a1-6)]Man(b1-4)GlcNAc(b1-4)GlcNAc
# Procedure, shortened: as §1
# [10] = biological target: Gal(b1-4)GlcNAc(b1-2)Man(a1-6)Man(b1-4)GlcNAc(b1-4)GlcNAc
# Procedure, shortened: as §1
# [11] = biological target: Gal(b1-4)GlcNAc(b1-2)Man(a1-6)[GlcNAc(b1-2)Man(a1-3)]Man(b1-4)GlcNAc(b1-4)GlcNAc
# Procedure, shortened: as §1
# [12] = biological target: Gal(b1-4)GlcNAc(b1-2)Man(a1-6)[Man(a1-3)]Man(b1-4)GlcNAc(b1-4)GlcNAc
# Procedure, shortened: as §1
# [13] = biological target: Gal(b1-4)GlcNAc(b1-2)[Gal(b1-4)GlcNAc(b1-4)]Man(a1-3)[Gal(b1-4)GlcNAc(b1-2)Man(a1-6)]Man(b1-4)GlcNAc(b1-4)GlcNAc
# Procedure, shortened: as §1
# [14] = biological target: Gal(b1-4)GlcNAc(b1-2)[Gal(b1-4)GlcNAc(b1-4)]Man(a1-3)[Gal(b1-4)GlcNAc(b1-2)[Gal(b1-4)GlcNAc(b1-6)]Man(a1-6)]Man(b1-4)GlcNAc(b1-4)GlcNAc
# Procedure, shortened: as §1
# [15] = biological target: Gal(b1-4)GlcNAc(b1-2)[Gal(b1-4)GlcNAc(b1-4)]Man(a1-3)[GlcNAc(b1-4)][Gal(b1-4)GlcNAc(b1-2)Man(a1-6)]Man(b1-4)GlcNAc(b1-4)GlcNAc
# Procedure, shortened: as §1
# [16] = biological target: Gal(b1-4)GlcNAc(b1-2)[Gal(b1-4)GlcNAc(b1-4)]Man(a1-3)[GlcNAc(b1-4)][Gal(b1-4)GlcNAc(b1-2)[Gal(b1-4)GlcNAc(b1-6)]Man(a1-6)]Man(b1-4)GlcNAc(b1-4)GlcNAc
# Procedure, shortened: as §1
# [17] = biological target: Gal(b1-4)GlcNAc(b1-2)[Gal(b1-4)GlcNAc(b1-6)]Man(a1-6)[Gal(b1-4)GlcNAc(b1-2)Man(a1-3)]Man(b1-4)GlcNAc(b1-4)GlcNAc
# Procedure, shortened: as §1
# [18] = biological target: Gal(b1-4)GlcNAc(b1-2)[Gal(b1-4)GlcNAc(b1-6)]Man(a1-6)[Gal(b1-4)GlcNAc(b1-2)Man(a1-3)]Man(b1-4)GlcNAc(b1-4)[Fuc(a1-6)]GlcNAc
# Procedure, shortened: as §1
# [19] = biological target: Gal(b1-4)GlcNAc(b1-2)[Gal(b1-4)GlcNAc(b1-6)]Man(a1-6)[GlcNAc(b1-4)][Gal(b1-4)GlcNAc(b1-2)Man(a1-3)]Man(b1-4)GlcNAc(b1-4)GlcNAc
# Procedure, shortened: as §1
# [20] = biological target: Gal(b1-4)GlcNAc(b1-2)[Gal(b1-4)GlcNAc(b1-6)]Man(a1-6)[GlcNAc(b1-4)][Gal(b1-4)GlcNAc(b1-2)[Gal(b1-4)GlcNAc(b1-4)]Man(a1-3)]Man(b1-4)GlcNAc(b1-4)[Fuc(a1-6)]GlcNAc
# Procedure, shortened: as §1
# [21] = biological target: Gal(b1-4)GlcNAc(b1-3)Gal(b1-3)GalNAc
# Procedure, shortened: as §1
# [22] = biological target: Gal(b1-4)GlcNAc(b1-3)Gal(b1-3)GlcNAc
# Procedure, shortened: as §1
# [23] = biological target: Gal(b1-4)GlcNAc(b1-3)Gal(b1-4)Glc
# Procedure, shortened: as §1
# [24] = biological target: Gal(b1-4)GlcNAc(b1-3)Gal(b1-4)GlcNAc
# Procedure, shortened: as §1
# [25] = biological target: Gal(b1-4)GlcNAc(b1-3)Gal(b1-4)GlcNAc(b1-2)Man(a1-3)[Gal(b1-4)GlcNAc(b1-3)Gal(b1-4)GlcNAc(b1-2)Man(a1-6)]Man(b1-4)GlcNAc(b1-4)GlcNAc
# Procedure, shortened: as §1
# [26] = biological target: Gal(b1-4)GlcNAc(b1-3)Gal(b1-4)GlcNAc(b1-2)Man(a1-3)[Gal(b1-4)GlcNAc(b1-3)Gal(b1-4)GlcNAc(b1-2)Man(a1-6)]Man(b1-4)GlcNAc(b1-4)[Fuc(a1-6)]GlcNAc
# Procedure, shortened: as §1
# [27] = biological target: Gal(b1-4)GlcNAc(b1-3)Gal(b1-4)GlcNAc(b1-2)[Gal(b1-4)GlcNAc(b1-3)Gal(b1-4)GlcNAc(b1-6)]Man(a1-6)[Gal(b1-4)GlcNAc(b1-3)Gal(b1-4)GlcNAc(b1-2)Man(a1-3)]Man(b1-4)GlcNAc(b1-4)GlcNAc
# Procedure, shortened: as §1
# [28] = biological target: Gal(b1-4)GlcNAc(b1-3)Gal(b1-4)GlcNAc(b1-2)[Gal(b1-4)GlcNAc(b1-3)Gal(b1-4)GlcNAc(b1-6)]Man(a1-6)[Gal(b1-4)GlcNAc(b1-3)Gal(b1-4)GlcNAc(b1-2)Man(a1-3)]Man(b1-4)GlcNAc(b1-4)[Fuc(a1-6)]GlcNAc
# Procedure, shortened: as §1
# [29] = biological target: Gal(b1-4)GlcNAc(b1-3)Gal(b1-4)GlcNAc(b1-3)Gal(b1-4)GlcNAc
# Procedure, shortened: as §1
# [30] = biological target: Gal(b1-4)GlcNAc(b1-3)Gal(b1-4)GlcNAc(b1-3)Gal(b1-4)GlcNAc(b1-2)Man(a1-3)[Gal(b1-4)GlcNAc(b1-3)Gal(b1-4)GlcNAc(b1-3)Gal(b1-4)GlcNAc(b1-2)Man(a1-6)]Man(b1-4)GlcNAc(b1-4)GlcNAc
# Procedure, shortened: as §1
# [31] = biological target: Gal(b1-4)GlcNAc(b1-3)Gal(b1-4)GlcNAc(b1-3)Gal(b1-4)GlcNAc(b1-2)Man(a1-3)[Gal(b1-4)GlcNAc(b1-3)Gal(b1-4)GlcNAc(b1-3)Gal(b1-4)GlcNAc(b1-2)Man(a1-6)]Man(b1-4)GlcNAc(b1-4)[Fuc(a1-6)]GlcNAc
# Procedure, shortened: as §1
# [32] = biological target: Gal(b1-4)GlcNAc(b1-3)Gal(b1-4)GlcNAc(b1-3)Gal(b1-4)GlcNAc(b1-2)[Gal(b1-4)GlcNAc(b1-3)Gal(b1-4)GlcNAc(b1-3)Gal(b1-4)GlcNAc(b1-6)]Man(a1-6)[Gal(b1-4)GlcNAc(b1-3)Gal(b1-4)GlcNAc(b1-3)Gal(b1-4)GlcNAc(b1-2)Man(a1-3)]Man(b1-4)GlcNAc(b1-4)[Fuc(a1-6)]GlcNAc
# Procedure, shortened: as §1
# [33] = biological target: Gal(b1-4)GlcNAc(b1-3)Gal(b1-4)GlcNAc(b1-3)Gal(b1-4)GlcNAc(b1-3)Gal(b1-4)GlcNAc(b1-2)Man(a1-3)[Gal(b1-4)GlcNAc(b1-3)Gal(b1-4)GlcNAc(b1-3)Gal(b1-4)GlcNAc(b1-3)Gal(b1-4)GlcNAc(b1-2)Man(a1-6)]Man(b1-4)GlcNAc(b1-4)GlcNAc
# Procedure, shortened: as §1
binder,measurement,setting,value
PX9961H-bth-557-24-557 (Bacteroides thetaiotaomicron) (protein) EETRTEVEKKNYMNNAEEAKDVLLGVYRTNTLDAMYGYYLSILFNLGTDISQVEGSGNENFRIIPTNSFPTTQSEVQQTWAALYTGIYRANDFLERISNKIGSYTTTDKKLATLYIAEARALRGMFYFELVRRFGNVVLMTSTQMSNQNPATYVQSAPEKVYEYIEDDLLYACDILPYATDDQYRESNDYRFSKGAALGLLTKVYATWAGYPVKDESKWEAAAKTARILVESGKHGLLKDYEQLWKNTCNGTWDPTESLIEISFYSPTVSGNSDPVGRIGKWNGVKTTAIAGVRGSCAANVKVVHTFVLDWREDVSDIRRDLSIANYQYTDTKKSLWVAGASDTDESAAEKDADPTKAQKNKQNYTPAKWDIQKYVTTNSFINNDKSNVNWYFLRYADVLLLYAEALNEWKHGPDAEAYNAINAVRRRGYGNPSNTSACDLPQGLDETSFREAVRKERSYELSFEGHRRQDLIRWGIYYKTVQATAKELGYWWEGTGSPNYSVATYTEEGKHELFPIPQRDMDLCIQFNQNPKW,glycan array binding signal (z-score),Gal(b1-4)Glc,-0.321
same,glycan array binding signal (z-score),Gal(b1-4)Glc6S,-0.027
same,glycan array binding signal (z-score),Gal(b1-4)GlcNAc,-0.345
same,glycan array binding signal (z-score),[1],0.191
same,glycan array binding signal (z-score),Gal(b1-4)GlcNAc(b1-2)Man,-0.104
same,glycan array binding signal (z-score),[2],10.2
same,glycan array binding signal (z-score),[3],-0.223
same,glycan array binding signal (z-score),[4],4.19
same,glycan array binding signal (z-score),[5],-0.558
same,glycan array binding signal (z-score),[6],-0.405
same,glycan array binding signal (z-score),[7],0.218
same,glycan array binding signal (z-score),[8],-0.44
same,glycan array binding signal (z-score),[9],-0.279
same,glycan array binding signal (z-score),[10],-0.534
same,glycan array binding signal (z-score),[11],-0.399
same,glycan array binding signal (z-score),[12],-0.323
same,glycan array binding signal (z-score),[13],-0.114
same,glycan array binding signal (z-score),[14],1.53
same,glycan array binding signal (z-score),[15],0.18
same,glycan array binding signal (z-score),[16],2.36
same,glycan array binding signal (z-score),[17],0.971
same,glycan array binding signal (z-score),[18],-0.396
same,glycan array binding signal (z-score),[19],-0.13
same,glycan array binding signal (z-score),[20],-0.135
same,glycan array binding signal (z-score),[21],0.039
same,glycan array binding signal (z-score),[22],-0.058
same,glycan array binding signal (z-score),[23],0.203
same,glycan array binding signal (z-score),[24],-0.319
same,glycan array binding signal (z-score),[25],3.35
same,glycan array binding signal (z-score),[26],0.583
same,glycan array binding signal (z-score),[27],0.778
same,glycan array binding signal (z-score),[28],3.59
same,glycan array binding signal (z-score),[29],0.096
same,glycan array binding signal (z-score),[30],2.56
same,glycan array binding signal (z-score),[31],-0.234
same,glycan array binding signal (z-score),[32],3.08
same,glycan array binding signal (z-score),[33],2.76

# Source: the supplement of paper PMC8728848
